# ± gives the standard deviation of the averaged measurements. This is one part of the list.
# Test system: PfAP2-I AP2 domain 3 (GST-tagged)
# Experiment: gcPBM binding intensity (ln(normalized median fluorescence intensity)); higher = stronger DNA binding
# How it was run: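 After 1 h on an Agilent 4 × 180k array of primer-extended double-stranded 36-bp intergenic genomic probes and negative controls, bound GST-tagged P. falciparum DNA-binding domains were detected with Alexa488 anti-GST antibody and scanned at 488 nm. The domains had been expressed in E. coli, and binding took place in 1× PBS with 1% milk, 0.2 mg/ml BSA, 0.5% salmon testes DNA and 0.03% Triton X-100. Binding intensity is the highest Masliner-normalised natural-log median intensity across replicate spots of either probe orientation.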
row,Sequence,gcPBM binding intensity (ln)
1,TTTATATATTATATAAATATTATTATACTTTAAATA [TGCATGCA_negctrl_site236],7.34 ± 0.19
2,TTTTATCGATATATCTGTACATATTACTTATAATAA [XGTACX_site57],7.93 ± 0.44
3,ATGCTTTTGTCATGTGCACACACGTATATATTATAT [CACACA_site4163],9.82 ± 0.3
4,ACATGTATTTATAAGAGTACATATGTGTGCATGTTT [XGTACX_site7946],8.59 ± 0.18
5,AAAAAAAAAAAAAGATGTACATATATTTTTATTATA [XGTACX_site654],7.71 ± 0.33
6,AAGGATATAAAAAAACGTACGTACGATAATATAATT [XGTACX_site1292],8.07 ± 0.52
7,AACCATTCTTCTAATTGTACATTGAAAAATCATGAT [XGTACX_site3854],7.85 ± 0.51
8,AGTATTTTAATTTCAGTGCATTTTATTCTATAATTA,9.47 ± 0.29
9,AAAAAAAAAAAAAATGCATGTGCGTAAATAATAATA [TGCATGCA_site793],8.78 ± 0.47
10,ATATATATCTATATTTGTACATATTACATTCAAGTT [XGTACX_site1749],7.96 ± 0.64
11,TTTAGGAAAGGCGGCACACATTTATATATTTATTTA [CACACA_site5931],7.5 ± 0.49
12,AAGTTTTCTTACAGATGTACTTTTTAAAAATAAACT [XGTACX_site6632],7.95 ± 0.52
13,TTTTTTTTTTCTTGTTGTACTTTTAATAATTCATAT [XGTACX_site4704],8.11 ± 0.42
14,TTATTAAAAAAAATATGTACTCACAATATAATATAT [XGTACX_site3738],7.84 ± 0.18
15,GAAATTTTTAAAAAGGTGCTTTTAACAAAAATTATT [GTGCAC_site9687],9.88 ± 0.35
16,ACCATCCTTAATACTTATTTTTTCACAATTAAGTAA [GTGCAC_negctrl_site269],7.96 ± 0.51
17,TATATATATATAACATGTACATAAAATACATTTATA [XGTACX_site7370],9.07 ± 0.099
18,TTAGCAACTATTACTACACACATTTGTATATAATTT [CACACA_site1591],7.76 ± 0.61
19,CAACACTTATTGAAACGTACGCATATAGTTTCTTTT [XGTACX_site8960],7.57 ± 0.57
20,AAAGGATATGGACACACACACACATATATATATATA [CACACA_site8686],9.27 ± 0.21
21,TTTATTTATATTTATACACACAAACATAATACTACT [CACACA_site7039],7.92 ± 0.42
22,ATATATTTTTTAAACACACACATAAATATTTGTGTA [CACACA_site2879],7.84 ± 0.49
23,TATTTTTCTTTATTGGTACACACGAAAAAAAAATTG [CACACA_site3054],7.93 ± 0.31

row,Sequence,gcPBM binding intensity (ln)
1,AAAATCCAGTTTTCAAAATTGAACAAAAAAAAAATA [GTGCAC_negctrl_site542],7.5 ± 0.56
2,TCTAAGTATAAAGACACACAGAATAAAAAAAAATAT [CACACA_site2367],7.99 ± 0.81
3,AAAATATATATGTATGTTTATATGTTTATATATATT [XGTACX_negctrl_site337],7.45 ± 0.59
4,AAAAAAAAATTTAAGTGTACATTCCATTTTAGTTTA [XGTACX_site5286],7.33 ± 0.42
5,AAGAAGCATAAATGTACACACATATTTATATATCAA [CACACA_site6743],7.84 ± 0.39
6,TATTTAATATATTTATGTACATATTTATTTATTATT [XGTACX_site524],7.6 ± 0.18
7,TAATATACATAATAATGTACATATTTTCATATATAC [XGTACX_site6913],7.67 ± 0.26
8,CACAAAATAAATTAAACACACAACATCAGATATGTA [CACACA_site6529],7.37 ± 0.43
9,AACTATTTTATTATATGTACTTACGAATTTATAAAA [XGTACX_site5262],7.87 ± 0.35
10,AATGTAGGTTTATTTACACACAAATATAAATATATA [CACACA_site1523],7.6 ± 0.44
11,TGTGTTGTAACAAAATGTACGAGCTTGATGTAGAAT [XGTACX_site2293],8.13 ± 0.66
12,ATAAACTGATGTGTATGTACACATGTAATAATAAAT [XGTACX_site7649],7.89 ± 0.42
13,ATGTAAAACATAAAATGTACATATTATACAAACTAT [XGTACX_site5797],7.92 ± 0.47
14,TAAGTATAAATATTTACACACATTTGTTTTTTTTTA [CACACA_site7731],7.49 ± 0.4
15,AATAAAATAATAAAAGCACACAAGAATACAGACAAA [CACACA_site112],8.46 ± 0.59
16,GGATAATATATTAGAACACACATATATCTGTAAAAA [CACACA_site4266],7.74 ± 0.53
17,TAATATAATATATGCACACAAATATGTATATATGTG [CACACA_site2134],8.895 ± 0.049
18,TTGGATTTTCCATAATGTACACATAAAAGTGTTACA [XGTACX_site4544],7.5 ± 0.41
19,TTTTAAAAAATATAATATAATATAATATAAAATAAA [CACACA_negctrl_site154],7.39 ± 0.32
20,TTCTTATCAAGAGAAAGTACATAAAAAATTAATAAG [XGTACX_site1821],8.12 ± 0.18
21,CAAAACCTACATAACATACACACGCATATATAGAAT [CACACA_site2846],7.9 ± 0.4
22,CCAACAAAAATAAGCACACACAAATATACATACATA [CACACA_site3606],8.06 ± 0.29

# Reference: the supplement of paper PMC11417369
